Measurements: PMC4336329 (PLoS ONE, 2015)
The campaign covered roughly 310,000 compounds. About 14,000 (4.5%) showed an effect of 50% or more. Effects have a minus sign here. The list shows a part of the results.

These molecules were tested against human ether-à-go-go-related gene (hERG) potassium channel (human, UniProt Q12809) (assay: primary screen, population patch clamp on CHO cells stably expressing hERG).
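Further: peak tail current of the secondary pulse compared with the same well before compound.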

human ether-à-go-go-related gene (hERG) potassium channel, sequence (Q12809 whole entry, looked up): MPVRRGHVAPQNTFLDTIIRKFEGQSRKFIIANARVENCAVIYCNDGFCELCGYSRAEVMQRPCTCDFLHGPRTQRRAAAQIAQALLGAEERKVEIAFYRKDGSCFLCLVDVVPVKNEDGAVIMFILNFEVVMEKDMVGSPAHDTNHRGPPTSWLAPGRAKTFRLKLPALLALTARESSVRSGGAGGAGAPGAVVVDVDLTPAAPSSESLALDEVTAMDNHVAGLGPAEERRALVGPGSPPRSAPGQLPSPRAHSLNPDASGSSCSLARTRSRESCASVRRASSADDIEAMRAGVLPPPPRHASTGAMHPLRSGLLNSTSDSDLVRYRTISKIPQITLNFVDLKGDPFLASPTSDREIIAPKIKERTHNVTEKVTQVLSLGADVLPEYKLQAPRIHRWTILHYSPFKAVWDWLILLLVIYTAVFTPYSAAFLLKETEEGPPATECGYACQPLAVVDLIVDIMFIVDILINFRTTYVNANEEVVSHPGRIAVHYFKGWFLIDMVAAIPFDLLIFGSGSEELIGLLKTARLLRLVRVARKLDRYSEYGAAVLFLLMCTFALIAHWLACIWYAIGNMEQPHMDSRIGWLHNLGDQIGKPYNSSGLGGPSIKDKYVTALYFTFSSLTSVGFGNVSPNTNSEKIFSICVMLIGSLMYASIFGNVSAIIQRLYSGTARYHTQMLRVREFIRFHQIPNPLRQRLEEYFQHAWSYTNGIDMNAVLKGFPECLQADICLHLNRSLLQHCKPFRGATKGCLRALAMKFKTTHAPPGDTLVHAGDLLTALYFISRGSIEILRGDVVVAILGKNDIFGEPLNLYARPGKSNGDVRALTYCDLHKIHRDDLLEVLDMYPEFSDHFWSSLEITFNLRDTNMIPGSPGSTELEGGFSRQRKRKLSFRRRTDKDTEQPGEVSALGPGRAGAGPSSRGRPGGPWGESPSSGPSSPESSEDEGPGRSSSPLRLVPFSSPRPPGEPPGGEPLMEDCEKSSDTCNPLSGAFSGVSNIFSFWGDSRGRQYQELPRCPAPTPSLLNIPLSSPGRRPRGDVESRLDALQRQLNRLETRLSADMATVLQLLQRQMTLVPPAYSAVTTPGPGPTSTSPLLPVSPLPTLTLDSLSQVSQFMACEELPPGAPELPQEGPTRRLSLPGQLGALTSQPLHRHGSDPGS

First: O=C(O)C(Cc1c[nH]c2ccccc12)NS(=O)(=O)c1cccc2nsnc12 (stereo not shown)
Second: C[C@H](NCc1c[nH]c2ccccc12)c1ccccc1
The “hERG current change (%, negative = inhibition) at 10uM” value of the first is higher: 2.69% for the first, 0.641% for the second.

Going from `CC(CCc1ccccc1)NC(=O)CSc1ccccc1` (stereo not shown) to `CC(C)C(NC(=O)c1ccccc1)C(=O)NCCc1ccccc1` (stereo not shown), the “hERG current change (%, negative = inhibition) at 10uM” value rises from -2.1% to 9.77%.

Compared with `O=C(NNc1ccccc1Br)C(=O)n1ccc2ccccc21`, `CCOc1ccccc1NC(=O)CNC(=O)Cc1ccccc1` is lower in “hERG current change (%, negative = inhibition) at 10uM” value: 2.04% for the first, -3.12% for the second.

Going from `CC(C)(C)c1cc(Br)ccc1OCC(=O)Nc1ncn[nH]1` to `O=C(CSc1ncn[nH]1)NCCOc1ccccc1`, the “hERG current change (%, negative = inhibition) at 10uM” value rises from 0.994% to 18.1%.

Compared with `Cc1ccccc1N1CCN(S(=O)(=O)c2ccc3oc(=O)ccc3c2)CC1`, `O=S(=O)(/N=C(\c1ccccc1)N1CCOCC1)c1ccc(Cl)cc1` is higher in “hERG current change (%, negative = inhibition) at 10uM” value: -14.8% for the first, -5.09% for the second.

Compared with `O=C(NC1CCN(C(=O)N2c3ccccc3Sc3ccccc32)CC1)c1ccccc1Cl`, `CCOC(=O)c1cc(C#N)c(N2CCN(c3ccccn3)CC2)nc1-c1ccccc1` is lower in “hERG current change (%, negative = inhibition) at 10uM” value: -4.72% for the first, -14.4% for the second.

Going from `Cc1cc(NC(=O)c2ccccc2O)nc(C)n1` to `CC(C)(C)c1csc(NC(=O)c2cccnc2Cl)n1`, the “hERG current change (%, negative = inhibition) at 10uM” value falls from 13.5% to -36.2%.

Going from `CCOC(=O)/C=C(/C)N1N=C(c2ccc(OC)cc2)CC1c1cccc([N+](=O)[O-])c1` (stereo not shown) to `COc1ccc(NC(=S)Nc2ccc(N)c([N+](=O)[O-])c2)cc1`, the “hERG current change (%, negative = inhibition) at 10uM” value falls from 13.5% to 10.6%.

Going from `CC(=O)Nc1ccc(S(=O)(=O)N2CCc3cc4c(cc3C2)OCCCO4)cc1` to `CN(C)c1ccc(NC(=O)CSc2nc(C3CC3)nc3ccccc23)cc1`, the “hERG current change (%, negative = inhibition) at 10uM” value falls from 18.6% to 5.65%.

First: COc1ccc(CNC(=O)CCC(=O)c2ccc(C)cc2)cc1OC
Second: CCOc1ccc(NC(=O)CNC(=O)c2ccc(OC)c(OC)c2)cc1
The “hERG current change (%, negative = inhibition) at 10uM” value of the first is higher: 14.9% for the first, 0.00778% for the second.

First: COc1ccccc1OCCNC(=O)c1ccco1
Second: COc1ccc(CCNC(=O)c2[nH]c(C)c(C(C)=O)c2C)cc1
The “hERG current change (%, negative = inhibition) at 10uM” value of the first is higher: 1.64% for the first, -8.42% for the second.

First: CCOC(=O)c1c(C(=O)OCC)c(C)n(CCc2ccccc2)c1C
Second: CCC(=NC)C1=C(O)CC(c2ccccc2)CC1=O (stereo not shown)
The “hERG current change (%, negative = inhibition) at 10uM” value of the first is lower: 4.09% for the first, 23.8% for the second.

Going from `COc1ccc(C(=O)CSc2nccn2C)cc1` to `Cc1ccc(C(=O)N/N=C\C=C\c2ccc(Br)cc2)cn1`, the “hERG current change (%, negative = inhibition) at 10uM” value falls from 25.4% to -44.3%.

Going from `Cc1cc(C)c2nc(C(F)(F)F)nc(NCCCN3CCCC3=O)c2c1` to `C=CCc1c(C)[nH]c2ccc(C)cc2c1=O`, the “hERG current change (%, negative = inhibition) at 10uM” value rises from 11.1% to 25.1%.

Going from `CCOc1ccc(C2=CC(c3ccccc3)n3ncnc3N2)cc1` (stereo not shown) to `C/C(=N\NC(=S)Nc1cccc(C)c1)c1cc2ccccc2o1`, the “hERG current change (%, negative = inhibition) at 10uM” value rises from -19.7% to 7.96%.

Compared with `CCC(CC)C(=O)N1CCCC(c2nc(-c3cccs3)no2)C1` (stereo not shown), `CC(C)c1ccc(NC(=O)NC2CC3CCC(C2)N3Cc2cccs2)cc1` (stereo not shown) is lower in “hERG current change (%, negative = inhibition) at 10uM” value: 4.03% for the first, -11.3% for the second.

Going from `O=C(O)/C=C/c1ccc(S(=O)(=O)NCc2cccnc2)cc1` to `CSc1ccc(/C=C(\NC(=O)c2ccc(C)cc2)C(=O)NN)cc1`, the “hERG current change (%, negative = inhibition) at 10uM” value falls from 6.16% to -10.9%.

First: COC(=O)c1cccc(N(CC(=O)NC2CCCC2)C(=O)CCC(=O)Nc2cc(C)on2)c1
Second: O=C(C1CCCC1)N1CCC(CO)(Cc2ccccc2Cl)CC1
The “hERG current change (%, negative = inhibition) at 10uM” value of the first is higher: 17% for the first, -44.3% for the second.

Compared with `COc1ccc(S(=O)(=O)NC(N)=NCCc2ccc(OC)c(OC)c2)cc1C`, `Clc1ccc(CSc2nnc(CN3CCOCC3)n2-c2ccccc2)cc1Cl` is lower in “hERG current change (%, negative = inhibition) at 10uM” value: 4.3% for the first, -74.1% for the second.

Going from `CC1CC1C(=O)N(C)CC(=O)Nc1ccc(Cl)c(C(F)(F)F)c1` (stereo not shown) to `O=C(N/N=C/c1ccccc1O)NC12CC3CC(CC(C3)C1)C2`, the “hERG current change (%, negative = inhibition) at 10uM” value rises from -5.04% to 3.92%.

Compared with `O=C(Oc1ccc(/C=N/Nc2nc(N3CCCCC3)nc(N3CCCCC3)n2)cc1)c1ccco1`, `O=C(O)C1OC(Oc2cc3oc(-c4ccccc4)cc(=O)c3c(O)c2O)C(O)C(O)C1O` (stereo not shown) is higher in “hERG current change (%, negative = inhibition) at 10uM” value: -9.1% for the first, 14.3% for the second.

With `Nc1cc(N)nc(SCc2cccc(F)c2)n1` the “hERG current change (%, negative = inhibition) at 10uM” value was 8.68%.
